# From PubChem BioAssay AID1468 (National Center for Advancing Translational Sciences (NCATS), 2008)
# Out of some 280,000 compounds screened, about 1,100 (0.39%) were called active. The inconclusive results got no clear call from the source; some entries with a clear call stand among them for comparison. Calls follow the shape of the dose curve; as a rule, active = well fitted inhibition curve with a large enough effect; inconclusive = small, poorly fitted or top-dose-only effect, or effect the other way; inactive = flat fitted curve, though single readings scatter. Potencies of inconclusive entries are left out as doubtful fits.
# Target: Microtubule-associated protein tau (Homo sapiens) (UniProt P10636)
# Chain of UniProt P10636 (P10636 whole entry, looked up): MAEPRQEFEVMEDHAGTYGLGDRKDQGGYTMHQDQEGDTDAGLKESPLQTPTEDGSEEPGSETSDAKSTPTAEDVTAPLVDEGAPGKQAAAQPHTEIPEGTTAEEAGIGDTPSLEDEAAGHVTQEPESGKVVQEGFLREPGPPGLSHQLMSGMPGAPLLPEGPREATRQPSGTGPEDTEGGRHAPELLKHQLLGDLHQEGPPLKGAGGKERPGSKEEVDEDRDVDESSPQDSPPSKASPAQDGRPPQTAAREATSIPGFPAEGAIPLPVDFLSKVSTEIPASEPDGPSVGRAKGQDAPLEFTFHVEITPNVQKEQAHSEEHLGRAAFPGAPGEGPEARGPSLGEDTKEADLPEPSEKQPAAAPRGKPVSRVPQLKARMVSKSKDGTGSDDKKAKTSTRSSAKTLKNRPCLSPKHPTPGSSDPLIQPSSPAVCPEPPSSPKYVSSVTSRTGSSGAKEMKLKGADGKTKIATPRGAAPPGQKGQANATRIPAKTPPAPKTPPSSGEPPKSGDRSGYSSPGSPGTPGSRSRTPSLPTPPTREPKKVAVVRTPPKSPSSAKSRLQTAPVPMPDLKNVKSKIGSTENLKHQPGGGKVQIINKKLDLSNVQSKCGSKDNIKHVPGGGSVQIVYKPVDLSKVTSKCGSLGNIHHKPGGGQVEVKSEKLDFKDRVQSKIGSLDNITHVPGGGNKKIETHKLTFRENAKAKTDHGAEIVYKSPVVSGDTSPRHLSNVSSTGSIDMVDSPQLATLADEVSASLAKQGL
# Test: qHTS for Inhibitors of Tau Fibril Formation, Fluorescence Polarization; also: nearly all actives have a fitted effect of over 55% in size
# Conditions: K18 P301L tau heparin fibrillization, Alexa594 FP, 6 h; series mostly up to 57.7 µM
# Method in brief: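 Recombinant K18 P301L […], labeled with Alexa 594 at 0.24 uM over 15 uM unlabeled; heparin inducer 20 uM final; 37 C, 6 hr; FP endpoint.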
# % is scaled to controls: 0 for no effect and ±100 for the full control effect; potency is read from the fitted curve at half-maximal effect; tags tell the direction and shape of the fitted curve.
SMILES,Potency,"activity, negative = inhibition"
O=C1CC(N2CCN(c3ccccc3Cl)CC2)C(=O)N1c1ccccc1 (stereo not given),"inconclusive [inhibitor, single point]",
Cc1ccc(-c2nc(SCC(=O)NCC3CCCO3)c(-c3ccc(Cl)cc3)[nH]2)cc1 (stereo not given),inactive,
N=C(N)SCCc1cnc[nH]1,"inconclusive [inhibitor, single point]",
COC(=O)c1sccc1NS(=O)(=O)c1ccc(OC)cc1,inactive,
O=C1c2ccccc2C(Nc2ccc(S(=O)(=O)N3CCCCCC3)cc2)N1c1ccccn1 (stereo not given),inactive,
O=C(N/N=C/c1ccco1)c1cc(-c2ccc(Cl)s2)[nH]n1,"inconclusive [inhibitor, partial curve, poor fit]",
Cc1cc(C)n(CCc2nc(-c3ccco3)cs2)n1,"inconclusive [inhibitor, single point]",
CNC[C@H](O)c1cccc(O)c1,inactive,
Cc1nn(-c2ccc(F)cc2)c(-n2cccc2)c1C(=O)N1CCN(c2ccc(F)cc2)CC1,inactive,
CCOc1ccc(NC(=O)c2ccc(NC(=O)CCS(=O)(=O)c3cccs3)cc2)cc1,"inconclusive [inhibitor, single point]",
CCOC(=O)c1c(C)[nH]c(C=Nc2ccc(OC)cc2)c1O,inactive,
CCOc1ccc(CCNC(=O)CCc2c(C)nc3c(c(C)nn3-c3ccccc3)c2C)cc1OCC,inactive,
COc1ccc(S(=O)(=O)N(C)CC(=O)Nc2ccc3c(c2)OCO3)cc1,"inconclusive [activator, full curve, poor fit]",
Cc1c(C(=O)O)c(C(=O)O)c2n1CCS2,inactive,
O=C(NCCO)c1cccc(Nc2nc(-c3ccccc3)c3cc(Cl)ccc3n2)c1,"inconclusive [inhibitor, partial curve]",
COc1ccc(C(c2nnnn2Cc2ccccc2)N2CCN(C(=O)c3ccco3)CC2)cc1 (stereo not given),inactive,
Cc1ccc(C2CC(=O)N(Cc3ccccc3F)c3c2c(C)nn3-c2nc(C)cc(C)n2)cc1 (stereo not given),inactive,
C=CCn1c(SCC(=O)NCc2ccco2)nnc1-c1ccc2ccccc2n1,inactive,
COc1ccc(N2CCN(C(=O)c3cc4c(-c5ccccc5F)nn(C)c4s3)CC2)cc1,inactive,
O=C(CSc1nc(Nc2ccccc2)nc(N2CCOCC2)n1)Nc1ccc2c(c1)OCCO2,"inconclusive [inhibitor, single point]",
COc1ccccc1NS(=O)(=O)c1cccc(NC(=O)NC2CCCCC2)c1,"inconclusive [inhibitor, partial curve]",
CC1CCN(C(=S)Nc2ccc(SC(F)F)cc2)CC1,inactive,
O=C1C(c2ccncc2)N(CCC2=CCCCC2)C(=O)CN1C1CCCCC1 (stereo not given),"inconclusive [inhibitor, single point]",
COc1ccc(/C=C(\C#N)c2nc(-c3cc(Cl)ccc3OC)cs2)cc1,"inconclusive [inhibitor, partial curve]",

SMILES,Potency,"activity, negative = inhibition"
O=C(NCc1cccs1)c1ccc2c(c1)OCCO2,inactive,
O=C(CSc1nc2nccnc2c(=O)n1CCc1c[nH]c2ccccc12)Nc1ccccc1F,"inconclusive [activator, single point]",
COc1cc(NC(=O)c2ccc(C(C)(C)C)cc2)c(OC)cc1NC(=O)CN1CCCCC1,"inconclusive [activator, partial curve, poor fit]",
Cc1cc2cc(CNC(=S)Nc3ccc(OC(F)(F)F)cc3)ccc2[nH]1,"inconclusive [activator, full curve, poor fit]",
O=C(N/N=C\c1ccc(COc2ccc([N+](=O)[O-])cc2)o1)c1ccc(Cl)cc1,"inconclusive [inhibitor, partial curve, poor fit]",
CNC(=S)NCCc1ccc(OC)cc1,inactive,
O=C(CCC(=O)N1Cc2ccccc2Oc2ncccc21)Nc1ccc(Cl)cc1,"inconclusive [inhibitor, single point]",
COc1ccc(-c2nn(CC(=O)NC3CCCC3)c3c2cnc2ccc(F)cc23)cc1,"inconclusive [inhibitor, single point]",
OC[C@@H]1[C@@H](c2ccc(Cl)cc2)C(c2cccc(Cl)c2)=NN1c1ccccc1,"inconclusive [activator, partial curve]",
O=C(OC1CCc2ccccc2C1=O)c1ccccc1O (stereo not given),"inconclusive [inhibitor, partial curve, poor fit]",
CC(C)CNC(=O)c1ccccc1NC(=O)c1ccc(CN2CCOCC2)cc1,"inconclusive [inhibitor, single point]",
Cc1c2cnn(-c3ccccc3)c(=O)c2c(C)n1CC(=O)NCCc1ccc(Cl)cc1,inactive,
CCOC(=O)C1(Cc2ccc(OC)cc2)CCN(C(=O)c2cc3ccccc3[nH]2)CC1,inactive,
O=C(CCl)NNc1cccc(Cl)n1,"inconclusive [inhibitor, partial curve]",
O=C(CSc1ncnc2[nH]ncc12)Nc1nc(-c2ccc(F)c(F)c2)cs1,"inconclusive [inhibitor, single point]",
CCCOc1ccc(NC(=O)C2CC(=O)N(C)C(=Nc3cccc(OC)c3)S2)cc1 (stereo not given),"inconclusive [inhibitor, single point]",
C[C@]12CC(O)C3C(CCC4=CC(=O)CC[C@@]43C)C1CCC2c1csc(-c2ccccc2)n1 (stereo not given in full),"inconclusive [inhibitor, single point]",
CCCCC[C@H](O)/C=C/[C@H]1C=CC(=O)[C@@H]1C/C=C\CCCC(=O)O,inactive,
Cc1ccc2[nH]c(-c3cccc(N)c3)cc2c1,"inconclusive [activator, single point]",
COCCCNC(=O)c1c[nH]c2ccc(S(=O)(=O)N3CCc4ccccc43)cc2c1=O,active: 28.2 µM,
O=C(O)C1CCC[C@@H]2[C@@H]3CC(CN12)[C@@H]1CCCCN1C3 (stereo not given in full),inactive,
O=C(NCc1ccccc1)C1CCN(S(=O)(=O)N2CCOCC2)CC1,"inconclusive [inhibitor, single point]",
CCCCCn1c(N)c(-c2nc3ccccc3s2)c2c([N+](=O)[O-])nn(CC)c(=O)c21,"inconclusive [activator, full curve]",
C[C@H](NC(=O)N1CCc2nc(-c3ccccc3)c3c(c2C1)CO[C@@H](C)C3)c1ccccc1,,inactive: 11.8% [at 11.6 µM]

SMILES,Potency,"activity, negative = inhibition"
Cc1cccc2sc(NC(=O)CN(C)S(=O)(=O)c3cccs3)nc12,"inconclusive [inhibitor, partial curve, poor fit]",
O=S(=O)(c1ccc2nc(SCc3ccc(Cl)cc3)[nH]c2c1)N1CCOCC1,"inconclusive [inhibitor, partial curve]",
O=C1c2cccnc2C(=O)N1Cc1ccccc1,inactive,
COc1ccc(C2C=C(c3cccc(OC)c3)Nc3c(C(=O)Nc4ccccc4)cnn32)cc1 (stereo not given),"inconclusive [inhibitor, partial curve, poor fit]",
CN1CCc2c(sc3c2C(=O)NC(c2ccccc2)N3)C1 (stereo not given),"inconclusive [inhibitor, single point]",
O=C(CSc1nnc(-c2cccc(Cl)c2)o1)N1CCc2ccccc21,"inconclusive [activator, single point]",
O=C(CSc1nc2ccsc2c(=O)n1Cc1ccccc1)NCC1CCCO1 (stereo not given),inactive,
COc1ccc(OC)c(NC(=O)c2nc(-c3ccccc3)oc2C)c1,"inconclusive [inhibitor, single point]",
CC(C)CC(=O)Nc1cccc(-c2csc(-c3ccccc3)n2)c1,"inconclusive [inhibitor, partial curve]",
COc1ccc(C2C(C#N)=C(C)NC3=C2S(=O)(=O)c2ccccc23)cc1 (stereo not given),"inconclusive [inhibitor, partial curve]",
Cc1ccc(OCC(=O)Nc2ccccc2-c2ccccc2NC(=O)COc2ccc(C)cc2)cc1,"inconclusive [inhibitor, single point]",
COc1ccc(-c2coc3cc4oc(=O)cc(-c5ccccc5)c4cc23)cc1F,inactive,
CCOC(=O)c1cccc(NC(=O)c2cc3sccc3n2Cc2ccc(Cl)cc2)c1,"inconclusive [inhibitor, partial curve]",
O=C(CSc1ccc(-c2nc3ccccc3[nH]2)cn1)Nc1ccc(S(=O)(=O)NC2CC2)cc1,"inconclusive [inhibitor, partial curve]",
COc1cccc(CN(C(=O)Cn2nnc(-c3ccccc3F)n2)C(C(=O)NC(C)(C)C)c2ccncc2)c1 (stereo not given),inactive,
O=C(NCCc1ccc(Cl)cc1)Nc1cccc(Cl)c1,"inconclusive [inhibitor, single point]",
CCC1C(=O)N=C(SCC(=O)Nc2ccc(C(=O)OC)cc2)NC1=O (stereo not given),inactive,
O=C(O)c1cc2c(ccc3ccccc32)o1,"inconclusive [inhibitor, single point]",
CCc1c(C)sc(NC(=O)c2cc(-c3ccco3)on2)c1C#N,inactive,
Cn1c(SCC(=O)N/N=C/c2ccc([N+](=O)[O-])s2)nnc1-c1ccc(Cl)cc1,inactive,
CC(=O)NCc1ccc(-c2csc(N)n2)s1,"inconclusive [inhibitor, single point]",
COc1cc(-c2noc(-c3ccc(N4CCN(C)CC4)c([N+](=O)[O-])c3)n2)cc(OC)c1OC,inactive,
